Assay results published in patent publication US9763922B2 (priority 2014, dated 2017).

test system: MYC; experiment: cells; settings: Homo sapiens, MV4-11, 4 h, read-out: Myc IC50 (μM)

| SMILES | IC50 [µM] |
| --- | --- |
| CC(=O)N1CCc2c(c(N3CCCc4cc(-c5ccc(N(C)C)nc5)c(C(F)F)cc43)nn2C2CCOCC2)C1 [Example 312] | 0.017 |
| CC(=O)N1CCc2c(c(N3CCc4cc(-c5cnn(C)c5C)ccc43)nn2[C@@H]2CCOC2)C1 [Example 185, (R)-1-[3-[5-(1,5-dimethylpyrazol-4-yl)indolin-1-yl]-1-tetrahydrofuran-3-yl-6,7-dihydro-4H-pyrazolo[4,3-c]pyridin-5-yl]ethanone] | 0.565 |
| CNC(=O)N1CCc2c(c(N3CCCc4cc(-c5ccn(C)n5)c(C(F)F)cc43)nn2C2CCOCC2)C1 [Example 319, 3-[7-(difluoromethyl)-6-(1-methylpyrazol-3-yl)-3,4-dihydro-2H-quinolin-1-yl]-N-methyl-1-tetrahydropyran-4-yl-6,7-dihydro-4H-pyrazolo[4,3-c]pyridine-5-carboxamide] | 0.008 |
| CC(=O)N1CCc2c(c(N3CCc4ccc(-c5cnn(C)c5)cc43)nn2C)C1 [Example 168, 1-[1-methyl-3-[6-(1-methylpyrazol-4-yl)indolin-1-yl]-6,7-dihydro-4H-pyrazolo[4,3-c]pyridin-5-yl]ethanone] | 0.478 |
| CNC(=O)N1CCc2c(c(N3CCCc4cc(-c5cnn(C)c5)c(C(F)F)cc43)nn2C2CCN(C3COC3)CC2)C1 [Example 336, 3-[7-(difluoromethyl)-6-(1-methylpyrazol-4-yl)-3,4-dihydro-2H-quinolin-1-yl]-N-methyl-1-[1-(oxetan-3-yl)-4-piperidyl]-6,7-dihydro-4H-pyrazolo[4,3-c]pyridine-5-carboxamide] | 0.005 |
| CC(=O)N1CCc2c(c(N3CCCc4cc(-c5cnn(C)c5)c(C)cc43)nn2C2CCOCC2)C1 [Example 246, 1-[3-[7-methyl-6-(1-methylpyrazol-4-yl)-3,4-dihydro-2H-quinolin-1-yl]-1-tetrahydropyran-4-yl-6,7-dihydro-4H-pyrazolo[4,3-c]pyridin-5-yl]ethanone] | 0.094 |
| CNC(=O)N1CCc2c(c(N3CCCc4cc(-c5cnn(C)c5)c(C(F)F)cc43)nn2[C@H](C)C2CC2)C1 [Example 381, (R)-1-(1-cyclopropylethyl)-3-(7-(difluoromethyl)-6-(1-methyl-1H-pyrazol-4-yl)-3,4-dihydroquinolin-1(2H)-yl)-N-methyl-1,4,6,7-tetrahydro-5H-pyrazolo[4,3-c]pyridine-5-carboxamide] | 0.006 |
| CNC(=O)c1ccc(-c2cc(F)c(Nc3nn(C4CCOCC4)c4c3CN(C(=O)NC)CC4)cc2C(F)F)cn1 [Example 272, (R)-3-[3,4-dimethyl-6-(1-methylpyrazol-4-yl)-7-(trifluoromethyl)-2,3-dihydroquinoxalin-1-yl]-N-methyl-1-tetrahydropyran-4-yl-6,7-dihydro-4H-pyrazolo[4,3-c]pyridine-5-carboxamide] | 0.03 |
| CC(=O)N1CCc2c(c(Nc3cccc(C)c3)nn2Cc2cnco2)C1 [Example 189, (S)-4-[1-(5-acetyl-1-tetrahydrofuran-3-yl-6,7-dihydro-4H-pyrazolo[4,3-c]pyridin-3-yl)indolin-5-yl]-1-methyl-pyrazole-3-carbonitrile] | 0.81 |
| CC(=O)N1CCc2c(c(Nc3cccc(C(=O)N(C)C)c3)nn2CC2CC2)C1 [Example 220, 1-[3-[4-(hydroxymethyl)-5-(1-methylpyrazol-4-yl)indolin-1-yl]-1-tetrahydrofuran-3-yl-6,7-dihydro-4H-pyrazolo[4,3-c]pyridin-5-yl]ethanone] | 1.72 |
| CC(=O)N1CCc2c(c(Nc3cccc(-c4cnn(C)c4)c3F)nn2CC2CC2)C1 [Example 37, 1-[1-(cyclopropylmethyl)-3-[2-fluoro-3-(1-methylpyrazol-4-yl)anilino]-6,7-dihydro-4H-pyrazolo[4,3-c]pyridin-5-yl]ethanone] | 0.46 |
| CNC(=O)N1CCc2c(c(N3CCOc4cc(-c5cnn(C)c5)c(C#N)cc43)nn2C2CCOCC2)C1 [Example 275, 3-[6-cyano-7-(1-methylpyrazol-4-yl)-2,3-dihydro-1,4-benzoxazin-4-yl]-N-methyl-1-tetrahydropyran-4-yl-6,7-dihydro-4H-pyrazolo[4,3-c]pyridine-5-carboxamide] | 0.046 |
| CNC(=O)c1cccc(Nc2nn(CC3CC3)c3c2CN(C(C)=O)CC3)c1 [Example 219, 1-(5-acetyl-1-tetrahydropyran-4-yl-6,7-dihydro-4H-pyrazolo[4,3-c]pyridin-3-yl)-5-(1-methylpyrazol-4-yl)indoline-6-carbonitrile] | 0.79 |
| CNC(=O)N1CCc2c(c(N3CCCc4cc(-c5cnc(C)s5)c(C(F)F)cc43)nn2C2CCOCC2)C1 [Example 368, 3-[7-(difluoromethyl)-6-(2-methylthiazol-5-yl)-3,4-dihydro-2H-quinolin-1-yl]-N-methyl-1-tetrahydropyran-4-yl-6,7-dihydro-4H-pyrazolo[4,3-c]pyridine-5-carboxamide] | 0.006 |
| CC(=O)N1CCc2c(c(N3CC(c4ccccc4)Cc4cc(-c5cnn(C)c5)ccc43)nn2C2CCOC2)C1 (centres unmarked) [Example 118, 1-[3-[6-(1-methylpyrazol-4-yl)-3-phenyl-3,4-dihydro-2H-quinolin-1-yl]-1-tetrahydrofuran-3-yl-6,7-dihydro-4H-pyrazolo[4,3-c]pyridin-5-yl]ethanone] | 0.809 |
| COCC1Cc2cc(-c3cnn(C)c3)ccc2N(c2nn([C@H]3CCOC3)c3c2CN(C(C)=O)CC3)C1 (stereo in doubt) [Example 92, 1-[3-[3-(methoxymethyl)-6-(1-methylpyrazol-4-yl)-3,4-dihydro-2H-quinolin-1-yl]-1-tetrahydrofuran-3-yl-6,7-dihydro-4H-pyrazolo[4,3-c]pyridin-5-yl]ethanone] | 0.937 |
| CC(=O)N1CCc2c(c(N3CCCc4cc(-c5cnn(C)c5)c(C(F)F)cc43)nn2[C@@H]2CCNC(=O)C2)C1 (single isomer, unassigned) [Example 343] | 0.285 |
| CC(=O)N1CCc2c(c(Nc3ccc(-c4ccccn4)cc3)nn2CC2CC2)C1 [Example 104, (S, S)-1-(5-acetyl-1-tetrahydrofuran-3-yl-6,7-dihydro-4H-pyrazolo[4,3-c]pyridin-3-yl)-4-methyl-6-(1-methylpyrazol-4-yl)-3,4-dihydro-2H-quinoline-7-carbonitrile] | 0.42 |
| CNC(=O)N1CCc2c(c(N3CCCc4cc(-c5cnn(C)c5)c(C(F)F)cc43)nn2C2CCCCC2)C1 [Example 375, 1-cyclohexyl-3-(7-(difluoromethyl)-6-(1-methyl-1H-pyrazol-4-yl)-3,4-dihydroquinolin-1(2H)-yl)-N-methyl-1,4,6,7-tetrahydro-5H-pyrazolo[4,3-c]pyridine-5-carboxamide] | 0.008 |
| CC(=O)N1CCc2c(c(N3CCCc4cc(-c5cnn(C)c5)c(Cl)cc43)nn2C2CCOCC2)C1 [Example 354, 1-[3-[7-chloro-6-(1-methylpyrazol-4-yl)-3,4-dihydro-2H-quinolin-1-yl]-1-tetrahydropyran-4-yl-6,7-dihydro-4H-pyrazolo[4,3-c]pyridin-5-yl]ethanone] | 0.024 |
| CC(=O)N1CCc2c(c(N3CCc4cc(-c5cnn(C)c5)ccc43)nn2C2CCOC2)C1 (centres unmarked) [Example 171, 1-[3-[5-(1-methylpyrazol-4-yl)indolin-1-yl]-1-tetrahydrofuran-3-yl-6,7-dihydro-4H-pyrazolo[4,3-c]pyridin-5-yl]ethanone] | 2.95 |
| CC(=O)N1CCc2c(c(N3CCCc4cc(-c5cnn(C)c5)c(OC(F)(F)F)cc43)nn2C2CCOCC2)C1 [Example 247, 1-[3-[6-(1-methylpyrazol-4-yl)-7-(trifluoromethoxy)-3,4-dihydro-2H-quinolin-1-yl]-1-tetrahydropyran-4-yl-6,7-dihydro-4H-pyrazolo[4,3-c]pyridin-5-yl]ethanone] | 0.018 |
| CNC(=O)N1CCc2c(c(N3C[C@@H](C)N(C)c4cc(-c5cnn(C)c5)c(C(F)(F)F)cc43)nn2C2CCOCC2)C1 [Example 272, (R)-3-[3,4-dimethyl-6-(1-methylpyrazol-4-yl)-7-(trifluoromethyl)-2,3-dihydroquinoxalin-1-yl]-N-methyl-1-tetrahydropyran-4-yl-6,7-dihydro-4H-pyrazolo[4,3-c]pyridine-5-carboxamide] | 0.006 |
| CNC(=O)N1CCc2c(c(N3CC[C@@H](C)c4cc(-c5cnn(C)c5)c(C(F)F)cc43)nn2C2CCOCC2)C1 (single isomer, unassigned) [Example 358] | 0.01 |
| CC(=O)N1CCc2c(c(N3CCc4ccc(C(=O)O)cc43)nn2C)C1 [Example 211, 1-(5-acetyl-1-methyl-4,5,6,7-tetrahydro-1H-pyrazolo[4,3-c]pyridin-3-yl)indoline-6-carboxylic Acid] | > 20 |
| CC(=O)N1CCc2c(c(N3CCCc4cc(-c5cnn(C)c5)ncc43)nn2C2CCOCC2)C1 [Example 230, 1-(3-(6-(1-methyl-1H-pyrazol-4-yl)-3,4-dihydro-1,7-naphthyridin-1 (2H)-yl)-1-(tetrahydro-2H-pyran-4-yl)-6,7-dihydro-1H-pyrazolo[4,3-c]pyridin-5(4H)-yl)ethanone] | 0.236 |
| CNC(=O)N1CCc2c(c(N3CCN(C)c4cc(-c5cnn(C)c5)c(C(F)(F)F)cc43)nn2C2CCN(C3COC3)CC2)C1 [Example 330, N-methyl-3-[4-methyl-6-(1-methylpyrazol-4-yl)-7-(trifluoromethyl)-2,3-dihydroquinoxalin-1-yl]-1-[1-(oxetan-3-yl)-4-piperidyl]-6,7-dihydro-4H-pyrazolo[4,3-c]pyridine-5-carboxamide] | 0.015 |
| CC(=O)N1CCc2c(c(Nc3cccc(-c4cnn(C)c4)c3)nn2CC2CC2(F)F)C1 (centres unmarked) [Example 85, 1-(5-acetyl-1-tetrahydropyran-4-yl-6,7-dihydro-4H-pyrazolo[4,3-c]pyridin-3-yl)-3-methyl-6-(1-methylpyrazol-4-yl)-3,4-dihydro-2H-quinoline-7-carbonitrile] | 0.45 |
| CNC(=O)c1ccc(-c2cc3c(cc2C#N)N(c2nn(C4CCOCC4)c4c2CN(C(C)=O)CC4)CCC3)cn1 [Example 133, 5-(1-(5-acetyl-1-(tetrahydro-2H-pyran-4-yl)-4,5,6,7-tetrahydro-1H-pyrazolo[4,3-c]pyridin-3-yl)-7-cyano-1,2,3,4-tetrahydroquinolin-6-yl)-N-methylpicolinamide] | 0.047 |
